# Data reported in PubChem BioAssay AID686978 (National Center for Advancing Translational Sciences (NCATS), 2013).
# In all, about 420,000 compounds went through this assay and about 64,000 (15%) were called active. This list was built around the results that the source calls inconclusive (neither active nor inactive); the mix of calls is not that of the screen. Calls come from the whole dose curve; as a rule, active = well fitted inhibition curve with a large enough effect; inconclusive = small, poorly fitted or top-dose-only effect; inactive = flat fitted curve, though single readings scatter. Potencies of inconclusive entries are left out as doubtful fits.
# Experiment: qHTS for Inhibitors of human tyrosyl-DNA phosphodiesterase 1 (TDP1): qHTS in cells in absence of CPT; note: nearly all actives have a fitted effect of over 55% in size
# Conditions: DT40 Tdp1-/- hTDP1 cells, no CPT, ATP luminescence, 48 h; activity change, negative = growth inhibition: at 46.2 µM (top of the series) unless noted
# In short: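 Compound effects on proliferation are scored in DT40 Tdp1-/-;hTDP1 cells in the absence of CPT. ATP levels (CellTiter-Glo luminescence) are recorded after a ≥48 hr, 37 °C incubation.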
# % is set by controls: 0 for no effect and ±100 for the full control effect; potency is the fitted concentration of half-maximal effect; tags give direction and shape of the fitted curve.
Structure (SMILES),Potency,"activity change, negative = growth inhibition"
COc1ccc(CC(=O)Nc2cc(S(=O)(=O)N3CCOCC3)ccc2N2CCOCC2)cc1,inactive,
CC(=O)C1C(=O)C=C(c2cccs2)CC1c1ccccc1 (stereo unspecified),"inconclusive [inhibitor, single point]",
CCn1cc(C(=O)OCC(=O)Nc2c(C)cccc2C)c(=O)c2ccc(C)nc21,active: 23.1 µM,
CCn1cc(/C=N/NC(=O)c2cc3c(ccc4ccccc43)o2)c2ccccc21,"inconclusive [inhibitor, single point]",
Cc1nn(CC(=O)NCCc2ccccc2)c(=O)c2c1sc1ccccc12,"inconclusive [inhibitor, single point]",
CCN(C[C@H]1N[C@@](C)(C(=O)OC)[C@H]2C(=O)N(Cc3ccccc3)C(=O)[C@@H]12)C(=O)c1ccc(C(C)(C)C)cc1,active: 16.4 µM,
Cc1ccc(S(=O)(=O)N2CCC(N3CCCCCC3)CC2)cc1,inactive,
Cc1[nH]n(-c2ccccc2)c(=O)c1N=Nc1ccc(C(N)=O)cc1,"inconclusive [inhibitor, single point]",
COc1cc(NC(=O)c2cc(S(=O)(=O)N3CCCCC3)ccc2N2CCOCC2)cc(OC)c1,active: 20.6 µM,
CCOc1ccccc1NC(=O)CSC1=Nc2ccccc2C2=NC(CC(=O)NCc3ccc4c(c3)OCO4)C(=O)N12 (stereo unspecified),active: 23.1 µM,
COC(=O)C(c1ccccc1)C(CC(=O)c1ccccc1)c1ccccc1 (stereo unspecified),"inconclusive [inhibitor, single point]",
O=c1cc(-c2ccccc2)n2c(SCc3ccc(Br)cc3)nnc2[nH]1,inactive,
COc1ccc(C(=O)N2CCOC2CNC(=O)C(=O)NCc2ccccc2Cl)cc1 (stereo unspecified),inactive,
CC(C)c1nc(CNC(=O)c2ccc(OC3CCN(Cc4ccccn4)CC3)cc2)cs1,"inconclusive [inhibitor, partial curve]",
CC(C)C[C@H]1CNC(=S)N1C[C@H]1CCCN1C[C@H](Cc1ccc(O)cc1)N1C[C@H](CC(C)C)N(CC2CCCCCC2)C1=S,active: 20.6 µM,
C[C@@H]1CN([C@H](C)CO)C(=O)c2cc(Br)cnc2O[C@H]1CN(C)C(=O)Nc1ccc2c(c1)OCO2,inactive,
COc1cc(C(=O)Nc2cccc3c2CCCC3)cc(OC)c1OC,"inconclusive [inhibitor, single point]",
Cc1cccc2sc(NNC(=O)C3=COCCO3)nc12,"inconclusive [inhibitor, single point]",
O=C(NC(=S)Nc1cccc(NC(=S)NC(=O)c2ccco2)n1)c1ccco1,active: 5.17 µM,
CC(=O)N(C)c1ccc(N=Nc2c(C)[nH]n(-c3ccccc3)c2=O)cc1,"inconclusive [inhibitor, partial curve, poor fit]",
COc1ccc(N(CC(=O)Nc2cc(OC)ccc2OC)S(=O)(=O)c2c(C)nn(C)c2C)cc1,"inconclusive [inhibitor, single point]",
COc1ccccc1CN1C(=O)C(=O)c2cccc(C)c21,active: 6.51 µM,
CCN(C(=O)Cc1ccccc1OC)c1nnc(-c2ccncc2)s1,active: 14.6 µM,

Structure (SMILES),Potency,"activity change, negative = growth inhibition"
O=C(NCc1ccccc1)c1[nH]c(C(F)(F)F)nc1-c1ccccc1,inactive,
CCc1ccccc1-n1ncc(C(=O)Nc2ccc(OC)cc2)c1C,"inconclusive [inhibitor, partial curve]",
Cc1cc(C)n(-c2ccc(C(=O)NCc3ccc(F)cc3)cc2)n1,inactive,
Cc1ccnc(N2C(=O)c3ccccc3C2O)c1 (stereo unspecified),"inconclusive [inhibitor, partial curve]",
COc1ccc(NC(=O)C2(C)CCN2C(=O)c2ccc(C(C)(C)C)cc2)cc1OC (stereo unspecified),active: 10.3 µM,
O=C(c1cc2sccc2n1Cc1ccccc1)N1CCc2ccccc21,,inconclusive: -34.5% [inhibitor]
COc1ccc(CN2CCN(C(=O)C3CCN(C(=O)Nc4ccccc4)CC3)CC2)cc1OC,"inconclusive [inhibitor, single point]",
Cc1cc(=O)n2nc(N3CCC(C(=O)Nc4cccc(Cl)c4C)CC3)sc2n1,inactive,
CCCCSCCCNC(=O)c1c[nH]c2ccc(S(=O)(=O)Nc3cccc(OC)c3)cc2c1=O,active: 20.6 µM,
COc1ccc(C(=O)CC(=O)C(=O)Nc2ccccc2C(F)(F)F)cc1,active: 6.51 µM,
Brc1cc2c(cc1C1OCCO1)OCO2,inactive,
Cc1ccc(S(=O)(=O)NCC(c2ccc(N(C)C)cc2)N2CCc3ccccc32)cc1 (stereo unspecified),"inconclusive [inhibitor, single point]",
CCN(c1ccccc1)S(=O)(=O)c1ccc(Oc2ccccc2)c(N)c1,"inconclusive [inhibitor, partial curve]",
CCOC(=O)C1=CCN(S(=O)(=O)c2ccccc2F)C1c1ccccc1 (stereo unspecified),active: 16.4 µM,
CN(c1nc2ccccc2[nH]c1=O)C1CCCCC1,"inconclusive [inhibitor, single point]",
c1ccc(-c2onc3cc4c(cc23)OCCO4)cc1,,inconclusive: -35.6% [inhibitor]
CCn1cc(/C=C2/SC(=S)NC2=O)c(C)n1,"inconclusive [inhibitor, single point]",
COc1cc(/C=C/C(=O)OCC(=O)NCC2CCCCC2)ccc1O,"inconclusive [inhibitor, single point]",
CCC(C)NC(=O)Cn1c(=O)n(-c2ccc(C)c(C)c2)c(=O)c2c(C)c(C(=O)N(CC)CC)sc21 (stereo unspecified),inactive,
COc1ccc(N2CCN(C(=O)CSc3ncnc4c3cnn4-c3ccc(OC)cc3)CC2)cc1,"inconclusive [inhibitor, partial curve]",
CC(C)(C)c1ccc(C(=O)N2CCN(CCc3ccccn3)CC2)cc1,"inconclusive [inhibitor, partial curve]",
OCCN(CCO)CC(O)COCCC12CC3CC(CC(C3)C1)C2 (stereo unspecified),active: 20.6 µM,
CC(=O)N1c2ccc(S(=O)(=O)N(C)CC(=O)N(Cc3ccccc3)C(C)C)cc2CC1C (stereo unspecified),"inconclusive [inhibitor, single point]",
